Laboratory results from PubChem BioAssay AID1963576 (National Center for Advancing Translational Sciences (NCATS), 2024).
Out of some 46,000 compounds screened, about 60 (0.1%) were called active. About 3% were inconclusive and are not listed. The call rests on the fitted dose curve; in most records, active means well fitted inhibition curve with a large enough effect; inconclusive means small, poorly fitted or top-dose-only effect; inactive means no such curve, though single readings can be large or run the other way. The list shows a part of the results.

Experiment: Primary qHTS assay for Inhibitors of ovarian cancer metastasis using an organotypic tumor microenvironment (TME) model. Further: nearly all actives have a fitted effect of over 65% in size.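 On activity change, negative = inhibition: plate controls were DMSO wells for no effect and tomatine positive control wells for full effect.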
Conditions: SKOV3ip1-GFP adhesion/invasion on 3D omental model, fluorescence; series mostly up to 45.8 µM; activity change, negative = inhibition: at the top concentration
Summary of the method: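 A 3D layer of primary human omental fibroblasts, mesothelial cells, fibronectin and collagen I, grown 48 hr, received SKOV3ip1-GFP cells in serum-free medium plus compounds at 0.36-46 umol/L. After 2 hr RT and 16 hr 37 C, fixed adherent GFP cells were counted; normalized to DMSO and tomatine.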

Activity change, negative = inhibition, inactive:
COc1cccc(CNC(=O)CCCn2nc(C)c3c(C)n(-c4ccc(C)cc4)nc3c2=O)c1OC -28.9%
CC(C)Cn1c(=O)c2sccc2n2c(CCCC(=O)NC3CCCCC3)nnc12 -2.31%
CCc1ccc(CN(C(=O)c2cc(=O)c3ccc(C)cc3o2)C2CCS(=O)(=O)C2)cc1 (centres undefined) -9.59%
Cc1ccc(CN(Cc2ccco2)c2cnc(S(C)(=O)=O)nc2C(=O)Nc2ccccc2Br)o1 -12.3%
Cc1cc(C)cc(NC(=O)Cn2cc(C(=O)c3ccccc3)c(=O)c3ccc(C)nc32)c1 -1.77%
Cn1c(=O)c2nc(SCC(=O)Nc3ccc(Cl)c(Cl)c3)n(C)c2n(C)c1=O 8.85%
CCCCc1ccc(NC(=O)C2(C)Cc3ccccc3C(=O)O2)cc1 (centres undefined) -7.53%
COc1ccc(N(C)C(=O)c2cc(S(=O)(=O)N3CCc4ccccc43)cn2C)c(OC)c1 -12.6%
Cc1cccc(-c2nc(C(N)=O)c3c(n2)n(-c2ccc4c(c2)OCO4)c(=O)n3C)c1 -11.6%
COc1ccc(CNC(=O)Cn2nc(C)c3c(C)n(-c4ccccc4)nc3c2=O)cc1OC -1.04%
O=C(Nc1ccc(Cl)cc1)c1cc2c(-c3ccccc3)nn(-c3ccccc3)c2s1 1.75%
COC(=O)CN1C(=O)C(O)(CC(=O)c2ccc(F)cc2)c2ccccc21 (centres undefined) 5.37%
CC(C)Cn1cc(NC(=O)NCc2ccccc2Cl)c2ccccc2c1=O -11.8%
CC(NC(=O)C1CCN(S(=O)(=O)c2ccc3nc4c(c(C(=O)O)c3c2)CCCC4)CC1)c1ccccc1 (centres undefined) -0.634%
CCc1ccc(-n2c(SCc3cccc(F)c3)nc3[nH]ncc3c2=O)cc1 7.35%
COc1ccc(-c2cc(C(=O)Nc3sc4c(c3C#N)CCCC4)no2)cc1OC -3.61%
COc1cccc(NC(=O)c2ccc3nc(Cc4ccccc4)oc3c2)c1 -0.243%
Cc1ccc(NC(=O)CCS(=O)(=O)c2cc(Br)cc3c2N(C(=O)C2CC2)CC3)cc1 7.23%
O=C(CSc1oc(-c2ccccc2)nc1S(=O)(=O)c1ccccc1)c1ccccc1 4.52%
COC(=O)c1cc(NS(=O)(=O)c2cc(Br)cc3c2N(C(C)=O)CC3)cc(C(=O)OC)c1 2.3%
Cc1ccc(-n2c(-c3ccco3)nc3c(cnn3-c3ccccc3C)c2=O)cc1 13.1%
CCn1c(=O)cc(OCC(=O)Nc2ccc(C)c(F)c2)c2ccccc21 -5.54%
Cc1ccc(Cn2c(SCc3ccc(C(=O)NC4CCCC4)cc3)nc3ccncc32)cc1 -10.1%
Cc1ccc2nc(NCCc3ccccc3)c3nncn3c2c1 -5.48%
COc1ccc(-c2ccc(CCC(=O)O)n2CC(=O)Nc2cccc(C(F)(F)F)c2)cc1 2.75%
Cc1ccc(C(=O)Nc2ccc3oc(-c4ccncc4)nc3c2)c(Cl)c1 1.69%
Cc1nnc(NC(=O)C(=O)c2cc(C)n(-c3ccc(C)c(C)c3)c2C)s1 2.15%
CCCC(=O)c1ccc(OC(=O)c2c(-c3ccccc3Cl)noc2C)cc1 2.31%
COc1ccccc1C(=O)NC1=NC(c2ccc(Br)cc2)CC(=O)N1 (centres undefined) 1.47%
COc1ccccc1-c1nc(CNC(=O)Nc2ccccc2)c(C)o1 4.61%
OCCCc1nc2n(n1)C(c1cccc(Cl)c1)C=C(c1ccccc1)N2 (centres undefined) 9.96%
CCOc1ccc(-c2cc(C(=O)NCCc3ccc(Cl)cc3)c3ccccc3n2)cc1 -11.5%
CCOC(=O)c1c(NC(C)=O)c2c3c(sc2n1Cc1nc(-c2cccc(C)c2)oc1C)CCCC3 4.44%
CCCc1cc(C(=O)Nc2c(C)nn(Cc3ccc(Cl)c(Cl)c3)c2C)no1 -8.45%
CCCCCCNC(=O)n1cc(F)c(=O)[nH]c1=O -6.83%
O=[N+]([O-])c1cc(-c2nc(-c3ccccc3)no2)ccc1NC1CCCC1 -2.34%
CC(=O)c1ccc(NC(=O)Cn2c(=O)oc3cc(S(=O)(=O)N4CCCCC4)ccc32)cc1 4.38%
Cc1ccc2c(c1)C(C)(c1ccccc1)CC(C)(C)N2C(=O)c1ccc(F)cc1 (centres undefined) -0.659%
COc1ccc(-c2nc(CNC(=O)NC3CCCCC3)c(C)o2)c(OC)c1 0.658%
CC1=C(c2ccc(C)cc2)S(=O)(=O)N(Cc2ccc(C(=O)NCc3ccccc3F)cc2)C1=O -0.319%
CCOC(=O)c1cc2c(=O)n3ccccc3nc2n(Cc2ccco2)c1=NC(=O)c1ccc(F)cc1 15.7%
O=C(CCCn1c(=O)[nH]c2ccccc2c1=O)N1CCN(c2ccccc2)CC1 -10.7%
COc1cc(OC)c(NC(=O)Cn2cnc3c(nc4n3CCCCC4)c2=O)cc1Cl -1.39%
CCN(CCCNC(=O)Cn1ncc2c3ccccc3n(C)c2c1=O)c1cccc(C)c1 -9.06%
Cc1ccccc1C(=O)n1nc(-c2cccnc2)nc1NCc1ccc(F)cc1 -12.9%
O=C(Nc1cccc(Cl)c1)c1cc(S(=O)(=O)N2CCC3(CC2)OCCO3)ccc1F 3.43%
O=C(CN1CCN(C2CCCCC2)C(=O)C1=O)Nc1ccc(Cl)cc1 -12.7%
Cc1ccc(-n2ncc3c(N4CCCCC4)ncnc32)cc1 -11.7%
COc1ccc(Cl)cc1NC(=O)c1sc2nc3c(cc2c1N)CN(C)CC3 -2.09%
CCOc1ccccc1NC(=O)Cn1c(=O)n(Cc2ccccc2)c(=O)c2c3c(sc21)CN(C(C)=O)CC3 -9.62%
CC(C)CCN1C(=O)c2ccccc2CC1(C)C(=O)NC1CCCCC1 (centres undefined) -5.81%
COc1ccc(OC)c(NC(=O)Cn2c(CCC(=O)O)ccc2-c2ccccc2)c1 -0.563%
CCC(=O)Nc1ccccc1C(=O)OCc1cc(=O)n2cc(C)sc2n1 -0.978%
O=C(Nc1c(C(=O)N2CCN(c3ccccc3)CC2)oc2ccccc12)c1ccccc1F 11.5%
Cc1cccc(N(C)C(=O)c2cc3c(=O)oc4ccc(C)cc4c3s2)c1 15.4%
CCCN1CCN(C(=O)Cn2ncc3c4ccccc4n(Cc4cccc(Cl)c4)c3c2=O)CC1 -2.38%
CCOC(=O)c1cccc(NC(=O)CC2C(=O)N(c3ccc(F)cc3)C(=O)N2Cc2cccc(OC)c2)c1 (centres undefined) 1.62%
CCOC(=O)c1ccc(Nc2nc3ccccc3n3c(C)nnc23)cc1 -1.86%
CC1=Nc2cc(C(=O)NC3CCCC3)ccc2Sc2ccc(Cl)cc21 -9.66%
COC(=O)c1ccc(C(=O)OC)c(NC(=O)c2cnn3c(C(F)F)cc(-c4ccc(C)cc4)nc23)c1 4.9%
CCN1CCN(CCCNC(=O)c2cnn(-c3ccc(OC)cc3)c2C2CCN(C(=O)OC(C)(C)C)CC2)CC1 -5.31%
O=C(Cn1c(-c2cccs2)cc2cc(F)ccc21)N1CCCCC1 -9.7%
COC(=O)c1scc(-c2ccc(C)cc2)c1S(=O)(=O)N1CCN(c2ccccc2F)CC1 -2.61%
Cc1cccc(N2CCN(c3ncnc4c3cnn4-c3ccc(Cl)cc3)CC2C)c1 (centres undefined) -1.15%
CCOc1ccc(-c2noc(CSc3nnc(Cc4ccccc4)n3-c3ccc(F)cc3)n2)cc1 5.77%
CC(C)CN(CC(C)C)S(=O)(=O)c1ccc(C(=O)Nc2sc3c(c2C(N)=O)CCN(C(C)C)C3)cc1 47.4%
CCOCCc1nn2c(=O)cc(COC(=O)c3ccccc3NC(=O)CC(C)C)nc2s1 12.2%

outcome, inactive:
CCc1ccc(C2CC(=O)Oc3c2c(=O)n(C)c2ccccc32)cc1 (centres undefined)
Cc1nn(CC(=O)N2CCCCC2)c(=O)c2cc3occc3n12
Cc1ccc(Cl)cc1NC(=O)CCS(=O)(=O)c1ccc2c(c1)n(C)c(=O)c(=O)n2C
Cc1ccc(-n2c3nc(=O)[nH]c(=O)c-3cc3c(C)nn(-c4ccccc4)c32)c(C)c1
CCOC(=O)CSc1nc2ccc(NC(=O)COc3ccccc3C)cc2s1
COCCn1c(=N)c(C(=O)NCc2ccco2)cc2c(=O)n3cc(C)ccc3nc21
Cc1nn(-c2ccccc2)c(OC(=O)C(C)(C)C)c1Sc1ccccc1
CCc1ccc(-n2c(=O)c3cccnc3n2CC(=O)Nc2ccccc2C(F)(F)F)cc1
COc1ccc(-c2cn3c(n2)sc2cc(C(=O)Nc4cc(OC)cc(OC)c4)ccc23)cc1
Cc1cccc(-n2c(=O)c3c(c4cc(C)ccc4n3C)n(CC(=O)Nc3ccc(C)cc3C)c2=O)c1
COc1ccc(N2CCN(C(=O)c3ccc4c(Cl)c5c(nc4c3)CCCC5)CC2)cc1
COc1ccc(CN2C(=O)N(c3ccc(C)cc3)C(=O)C2CC(=O)Nc2ccccc2)cc1OC (centres undefined)
O=C1CCCc2[nH]c(=O)c(-c3nc(-c4cccc([N+](=O)[O-])c4)cs3)cc21
Cc1ccc(C(=O)c2sc(Nc3ccc(F)cc3)nc2N)c(C)c1
CCCCCCc1cc2cc(-c3cn4c(n3)sc3cc(OC)ccc34)c(=O)oc2cc1O
O=C(CN1C(=O)COc2ccc(S(=O)(=O)N3CCOCC3)cc21)N1CCN(c2ccc(Cl)cc2)CC1
O=S(=O)(NCCc1cn2ccsc2n1)c1ccc(Cl)cc1
CCOC(=O)c1ccccc1NC(=O)COc1cc(=O)n(CC)c2ccccc12
COc1ccc(NC(=O)CC(C)S(=O)(=O)c2ccc3c(c2)NC(=O)CO3)cc1OC (centres undefined)
Cc1cccc(C)c1NC(=O)Cn1c(=O)cc(C)c2c(C)nn(-c3cccc(Cl)c3C)c21
O=C(CCC1N=C2c3ccccc3N=C(SCc3ccc(Cl)cc3)N2C1=O)NC1CCCCC1 (centres undefined)
Cc1ccc(CCNC(=O)c2cc3cc(S(=O)(=O)N4CCCCC4)ccc3n2C)cc1
CCOc1ccc(-n2nc3ccc(NC(=O)c4ccc(C)cc4C)cc3n2)cc1
CC1CC(=O)N(CC(=O)Nc2ccc(OC(F)(F)F)cc2)c2ccccc2S1 (centres undefined)
CCN1CCOC(=O)C1CC(=O)Nc1cc(Cl)ccc1C (centres undefined)
COc1cccc(C(=O)Nc2c3c(nn2-c2ccc(C)cc2C)CS(=O)(=O)C3)c1OC
COc1ccc(N(C)S(=O)(=O)c2ccc3c(c2)n(C)c(=O)c(=O)n3C)cc1
